# According to paper PMC4336329 (PLoS ONE, 2015):
# About 2,200 (0.71%) of roughly 310,000 compounds showed an effect of 50% or more. Effects have a minus sign here. The list shows a part of the results.
# Molecular target: human ether-à-go-go-related gene (hERG) potassium channel (human, UniProt Q12809)
# Assay: primary screen, population patch clamp on CHO cells stably expressing hERG
# Sequence of human ether-à-go-go-related gene (hERG) potassium channel (Q12809 whole entry, looked up): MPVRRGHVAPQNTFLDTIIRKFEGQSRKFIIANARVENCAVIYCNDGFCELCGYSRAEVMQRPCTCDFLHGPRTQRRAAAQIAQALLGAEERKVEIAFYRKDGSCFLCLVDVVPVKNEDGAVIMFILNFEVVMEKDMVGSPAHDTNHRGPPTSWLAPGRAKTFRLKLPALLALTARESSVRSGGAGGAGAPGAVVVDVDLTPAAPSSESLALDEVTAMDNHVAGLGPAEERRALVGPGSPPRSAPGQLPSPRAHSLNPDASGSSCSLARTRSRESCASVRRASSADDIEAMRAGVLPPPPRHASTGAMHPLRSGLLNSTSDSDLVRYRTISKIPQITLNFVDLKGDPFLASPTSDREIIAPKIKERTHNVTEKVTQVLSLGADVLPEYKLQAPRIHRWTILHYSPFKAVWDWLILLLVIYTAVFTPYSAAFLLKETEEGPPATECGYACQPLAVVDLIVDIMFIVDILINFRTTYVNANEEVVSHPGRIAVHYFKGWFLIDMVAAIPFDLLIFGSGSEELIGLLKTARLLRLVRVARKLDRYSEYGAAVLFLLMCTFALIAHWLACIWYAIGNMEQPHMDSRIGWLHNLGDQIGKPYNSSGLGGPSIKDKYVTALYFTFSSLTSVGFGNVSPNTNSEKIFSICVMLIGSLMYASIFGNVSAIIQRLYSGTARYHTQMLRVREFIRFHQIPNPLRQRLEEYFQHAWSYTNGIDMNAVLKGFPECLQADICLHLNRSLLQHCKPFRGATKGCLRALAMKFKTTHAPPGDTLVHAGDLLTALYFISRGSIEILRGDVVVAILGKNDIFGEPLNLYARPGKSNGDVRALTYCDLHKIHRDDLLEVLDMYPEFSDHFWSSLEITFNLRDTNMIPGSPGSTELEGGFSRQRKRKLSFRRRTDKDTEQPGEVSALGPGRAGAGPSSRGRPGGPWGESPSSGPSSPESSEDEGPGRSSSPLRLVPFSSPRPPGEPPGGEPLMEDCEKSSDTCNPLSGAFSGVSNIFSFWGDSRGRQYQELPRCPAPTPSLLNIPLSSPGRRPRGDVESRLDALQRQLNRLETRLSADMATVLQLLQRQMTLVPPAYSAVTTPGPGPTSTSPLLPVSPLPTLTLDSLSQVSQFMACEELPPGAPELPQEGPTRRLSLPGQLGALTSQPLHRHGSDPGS
row,Structure (SMILES),"hERG current change (%, negative = inhibition) at 1uM [%]"
1,CC(=O)c1cc(C#N)c(SCc2ccccn2)nc1C,5.89
2,O=C(Cn1cnc2c(nnn2Cc2ccc(F)cc2)c1=O)NCC1CCCO1 (stereo not drawn),4.73
3,CCC(C)NC(=O)C1c2ccccc2Oc2ccccc21 (stereo not drawn),6.03
4,Cc1cc(C)c(S(=O)(=O)c2cc(F)ccc2C)c(=O)[nH]1,16.1
5,O=C(N/N=C\c1cccnc1)C1c2ccccc2Oc2ccccc21,13.2
6,Cn1c(SCC(=O)NCc2ccc3c(c2)OCO3)nnc1-c1cccs1,3.56
7,Cc1ccc(-c2nnc(N3CCOCC3)c3ccccc23)cc1S(=O)(=O)NCc1cccnc1,12.3
8,O=C(OCC#CCSc1nnc(-c2ccc([N+](=O)[O-])cc2)o1)c1cccs1,0.565
9,Cc1[nH]c2ccccc2c1C(=O)/C=C\c1ccccc1Cl,17.4
10,COC(=O)Cc1ccc2oc(-c3cccnc3)nc2c1,10.9
11,O=C(CN1C(=O)NC2(CCCC2)C1=O)OCc1ccc(Cl)cc1Cl,-1.09
12,O=C(NC1CCN(Cc2ccc3ccccc3c2)CC1)c1ccccc1,-10.2
13,O=C(NS(=O)(=O)c1ccc(Cl)cc1)c1ccccc1,11.9
14,Cc1ccc(C(=O)c2coc3ccc(O)cc23)cc1,9.21
15,CCCSc1oc(-c2ccco2)nc1S(=O)(=O)c1ccc(C)cc1,21.3
16,CC(C)NC(=O)NC(=O)COC(=O)c1ccc(NC(=O)CC#N)cc1,5.06
17,CN(Cc1ccccc1)S(=O)(=O)c1ccc(C(=O)Nc2nnc(C3CC3)o2)cc1,1.93
18,O=C(Nc1ccnn1C1CCN(Cc2cccc(F)c2F)CC1)C1CCCC1,8
19,CCCCNC(=O)CSc1nc2cc(OC)c(OC)cc2c(=O)n1Cc1ccc(OC)cc1,4.01

row,Structure (SMILES),"hERG current change (%, negative = inhibition) at 1uM [%]"
1,Cn1cnc([N+](=O)[O-])c1Sc1nc2ccccc2[nH]1,2.24
2,O=C(c1ccc(Br)cc1)N(C1=NCCCCS1)c1ccccc1,-2.59
3,C/C=C(\C)CN1CCC(n2nccc2NC(=O)CCOc2ccccc2)CC1,10.8
4,CCOCCCNC(=O)CCc1ccc(S(=O)(=O)Nc2ccc(C)cc2)cc1,17.5
5,COc1ccc2nc(NC(=O)C3CCN(S(=O)(=O)c4cccc5nsnc45)CC3)sc2c1,10.5
6,O=C(O)CCN1C(=O)S/C(=C\c2cccnc2)C1=O,11.4
7,COc1ccc(-c2csc(NC(=O)CSc3nc(C)nc4sc(C(=O)O)c(C)c34)n2)cc1,6.07
8,O=C(c1ccccc1)C(c1ccccc1)c1ccccc1,6.7
9,COCCn1c(C)cc(/C=C(\C#N)C(=O)OCC(=O)N(C)c2c(N)n(Cc3ccccc3)c(=O)[nH]c2=O)c1C,13.6
10,COc1ccc(Cl)cc1NC(=O)C(=O)NCc1ccncc1,6.36
11,CN(C(=O)COC(=O)c1cn(C)c2ccccc12)C1CCCCC1,15.7
12,Cc1ccc(NC(=O)CC2CS(=O)(=O)CC2CC(=O)Nc2ccc(C)c(C)c2)cc1C (stereo not drawn),3.74
13,Cc1ccc(S(=O)(=O)NCC(=O)NCc2cc(=O)n(C)c(=O)n2C)cc1,42.4
14,FC(F)(F)c1cccc(N2CCN(CC3CC=CCC3)CC2)c1 (stereo not drawn),14.3
15,O=C(NNc1ccccc1)C(=O)NNS(=O)(=O)c1ccc(CCCl)cc1,6.46
16,Cc1ccc(Nc2ncccc2C(N)=O)cc1,6.06
17,CCC(C(=O)Nc1ccccc1)c1ccccc1 (stereo not drawn),6.6
18,O=C(NCc1ccncc1)C(=O)NCC(c1ccco1)N1CCN(c2ccc(F)cc2)CC1 (stereo not drawn),-0.429
19,O=C(NC(=S)N1CCOCC1)c1ccc(F)cc1,20.8

row,Structure (SMILES),"hERG current change (%, negative = inhibition) at 1uM [%]"
1,Cc1ccc(OCCNc2cc(N3CCN(CCO)CC3)ccc2[N+](=O)[O-])cc1C,13
2,Cc1ccc(C(=O)Cn2c(C(=O)OCCO)cc3ccccc32)cc1,11.7
3,Cc1nnc(NC(=O)CSc2nc3c(c(=O)n(C)c(=O)n3C)n2C(C)C)s1,14.5
4,CC1CCCCN1C(=O)c1cc2nc(-c3ccccc3)cc(-c3ccccc3)n2n1 (stereo not drawn),12.4
5,O=C(CCCN1C(=O)c2ccccc2C1=O)Nc1ccccn1,15.6
6,COCc1cc(C)nc(SCC(=O)NC2CCCCC2C)c1C#N (stereo not drawn),16
7,NS(=O)(=O)c1ccc(CCNC(=O)COC(=O)C2CCC2)cc1,9.64
8,COc1ccccc1-n1c(SCC(=O)Nc2ccc(NC(C)=O)cc2)nc2c([nH]c3ccccc32)c1=O,14.2
9,COc1ccc(S(=O)(=O)N2CCCCC2)cc1NC(=S)Nc1ccccc1,13.9
10,CC(=O)c1cccc(NC(=O)C2CCN(S(=O)(=O)c3ccc(C)cc3)CC2)c1,-1.63
11,COC(=O)C(C)N(C(=O)c1cccc(Cl)c1)c1c(C)cccc1C (stereo not drawn),16.8
12,CCOc1ccccc1CSc1nc2ccccc2[nH]1,11.1
13,CCC(=O)N/C(N)=N/c1nc(C)c2cc(OC)ccc2n1,3.38
14,CO/N=C(/CS(=O)Cc1ccc(Cl)cc1)c1ccc(Cl)cc1 (stereo not drawn),-6.81
15,COc1ccc(NC(C)=O)cc1NC(=O)CCn1c(=O)sc2ccccc21,8.35
16,COc1ccc(OC)c(N/C=C/C(=C(C#N)C#N)N(C)C)c1,3.82
17,O=C1NCCN(Cc2ccc(Cl)c(F)c2)C1CC(=O)N1CCCO1 (stereo not drawn),12.7
18,COc1ccc(C(OC(=O)c2ccco2)C(=O)NC2CCCCC2)cc1 (stereo not drawn),4.31
19,C[N+]1(CC(=O)NNc2c3ccccc3nc3ccccc23)CCOCC1.[Br-],7.7
